Assay results from PubChem BioAssay AID1508623 (National Center for Advancing Translational Sciences (NCATS), 2021).
Screen size: about 48,000 compounds; about 450 (0.94%) were called active. Inconclusive results (about 19%) are left out. The call rests on the fitted dose curve; in most records, active means well fitted inhibition curve with a large enough effect; inconclusive means small, poorly fitted or top-dose-only effect; inactive means no such curve, though single readings can be large or run the other way. Some of the results follow.

Assay: Primary qHTS for Identification of Small Molecule Inhibitors of Huntingtin Promoter Activity; further: nearly all actives have a fitted effect of over 50% in size
Details: HEK293 HTT promoter firefly luciferase reporter (activity 0% = vehicle and -100% = no light), 24 h; series mostly up to 57.5 µM; activity change, negative = inhibition: at the top concentration
Procedure, shortened: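 HEK293 cells carrying firefly luciferase reporters were seeded at 2,500 per well in Opti-MEM and cultured for 24 h. They were then treated with compounds at up to 57.5 uM final for 24 h at 37 degrees C before Dual-Glo luminescence readout.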

Activity change, negative = inhibition, inactive:
COC(=O)c1cccc(NC2=NS(=O)(=O)c3ccccc32)c1 -13.1%, Cc1cc(Cl)ccc1NC(=O)Cc1ccc(NC(=O)N2CCCCc3ccccc32)cc1 -7.97%, CCCCCC1Nc2cc(C(F)(F)F)c(S(N)(=O)=O)cc2S(=O)(=O)N1 (stereo not drawn) -3.95%, COc1ccc(C)cc1NC(=O)C1CCN(S(=O)(=O)c2cc(Br)cc3c2N(C(C)=O)CC3)CC1 -6.76%, CCOc1ccccc1NC(=O)N(Cc1ccc(C)o1)C1CCN(C(C)=O)CC1 -18.6%, Cc1ccc(-c2cc3ncc4c(n3n2)-c2cc(F)ccc2OC4)cc1 1.26%, CCOC(=O)CNC(=O)N1CCCN(S(=O)(=O)c2ccc3c(ccn3CC)c2)CC1 -22.5%, O=C(CSc1nnc(-c2ccc(Cl)cc2)o1)c1ccc([N+](=O)[O-])cc1 -19.8%, CCc1ccc(C(=O)c2cn(CC(=O)Nc3cccc(OC)c3)c3cc4c(cc3c2=O)OCO4)cc1 -20.2%, CCn1c(SCc2c(F)cccc2Cl)nc(=O)c2c(C(=O)OC)cc(C3CC3)nc21 2.37%, O=C(c1ccccc1Br)N(Cc1ccco1)Cc1ccco1 -27.8%, O=c1c(=O)n(-c2ccc(F)c(F)c2)ccn1Cc1ccc(F)cc1Cl -21.7%, CCOC(=O)C1=C(CS(=O)(=O)c2ccc(F)c(C)c2)NC(=O)NC1c1ccccc1OC (stereo not drawn) -15.1%, CCCc1nnc(NC(=O)c2nc(SCC)ncc2Cl)s1 -2.48%, CCc1nn(CC(=O)N2CCCCC2)c(=O)c2cc3occc3n12 -8.33%, CN(C)/N=N/c1nc[nH]c1C(N)=O 1.98%, CCOc1ccc(NC(=O)N2CCN(c3nnc(C)c4c(C)n(-c5ccccc5)nc34)CC2)cc1 -2.19%, CCCCn1c(=O)n(-c2cc(OC)ccc2OC)c(=O)c2c3c(sc21)CN(C(C)=O)CC3 12.5%, COc1ccc(-n2nc(C(=O)Nc3cc(C)ccn3)c3c4ccccc4n(C)c3c2=O)cc1 -7.7%, O=C(CC1N=C2c3ccccc3N=C(SCc3ccccc3Cl)N2C1=O)NCCc1ccccc1 (stereo not drawn) -31%, CCOc1ccc(-n2nc3ccc(NC(=O)c4ccc(OC)c(Cl)c4)cc3n2)cc1 -14.6%, Cc1ccc2c(=O)cc(C(=O)Nc3sc4c(c3C(=O)NCC3CCCO3)CCC4)oc2c1 (stereo not drawn) -13.6% [at 11.5 µM], Cc1oc(-c2ccccc2Cl)nc1CS(=O)(=O)CC(=O)NCc1ccc(F)cc1 -30%, CCC(C(=O)NCc1ccccc1OC)n1nc(C)n2c(cc3occc32)c1=O (stereo not drawn) -15.2%, COc1ccc(C(=O)Nc2ccc(N(C)Cc3ccccc3)c(C(=O)O)c2)cc1 -12%, CCOC(=O)Cn1c(=O)n(CC2CCCO2)c2nc(-c3ccccc3)nc(C(N)=O)c21 (stereo not drawn) 1.77%, Cc1cc(C)cc(NC(=O)N2CCC(CN3CCOCC3)CC2)c1 -5.17%, O=C(Nc1ccc(C(=O)O)c(O)c1)c1ccccc1 4.12%, CC(C)NC(=O)N1[C@H](c2cccs2)[C@@H](C)C(=O)[C@@H](C)[C@@H]1c1cccs1 -17.2%, O=C(CN1CCCN(Cc2ccccc2F)S1(=O)=O)Nc1ccc(F)c(Cl)c1 -4.38%, Cc1ccc(CNCc2ccccc2Cl)s1 23.2%, COc1ccc(-c2nnc(SCC(=O)NCCC(C)C)nc2-c2ccc(OC)c(OC)c2)cc1OC -22.2%, COCc1cc(C)nc2c1C(=O)NC(c1ccc(F)cc1)N2Cc1ccccc1 (stereo not drawn) -17.8%, COC(=O)c1cc2oc(C)cc2n1CC(=O)Nc1ccc(C(C)C)cc1 -28.1%, CCCCNC(=O)c1ccc2c(=O)n(Cc3ccc(OC)cc3)c(=O)[nH]c2c1 0.875%, CC1=C(C(=O)NCc2cccc(F)c2)C2(CCCCC2)OC1=O -20.5%, CC1Cc2ccccc2N1C(=O)CSc1nc2ccc(NC(=O)COc3ccccc3)cc2s1 (stereo not drawn) -32.1%, CCCCOC(=O)c1ccc(N)cc1 9.31%, CCOC(=O)C(C)Sc1ccc2nnc(CCNS(=O)(=O)c3ccc(C)cc3)n2n1 (stereo not drawn) 7.41%, N#Cc1c(C(F)(F)F)cc(-c2cccs2)nc1SCc1ccc(F)cc1 -2.74%, Cc1ccccc1CSc1cn(CC(=O)N2CCCCC2)c2ccccc12 -2.82%, CCOC(=O)c1c(C)oc2nc(C)nc(NCC3CCN(Cc4ccc(C)cc4)CC3)c12 -0.43%, Cc1nn(C)cc1CN(C)C(=O)c1cc(-c2ccccc2)nc2ccc(Br)cc12 -8.75%, Cc1ccc(NC(=O)CCS(=O)(=O)c2ccc(Br)s2)c(Br)c1 -17.2%, CCCc1ccc(OCC(=O)Nc2sc(C(=O)OCC)c(C)c2C(=O)OCC)cc1 -0.699%, CCc1ccccc1NS(=O)(=O)c1ccc2[nH]cc(C(=O)N(CC)Cc3ccccc3)c(=O)c2c1 4.51%, CSc1ncc(C(=O)NCc2ccccc2F)c(-c2ccccc2)n1 1.5%, CCc1ccc(C2CC(=O)c3c([nH]c(C(=O)OC4CCCC4)c3C)C2)cc1 (stereo not drawn) 5.39%, COc1ccc(C2NC(=O)N(C)C3=C2C(=O)N(c2ccc(C(=O)O)cc2)C3)cc1 (stereo not drawn) -8.78%, COc1ccc(OC)c(C2CC(=O)Nc3c2c(=O)[nH]c2ncnn32)c1 (stereo not drawn) -2.95%, CCc1ccc2occ(CC(=O)Nc3c(C(=O)c4ccc(C)cc4)oc4ccccc34)c2c1 -8.09%, COc1ccc(S(=O)(=O)Nc2c(C)nc3nc[nH]n3c2=O)cc1 -3.55%, O=[N+]([O-])c1cccc(S(=O)(=O)NCCNS(=O)(=O)c2cccc([N+](=O)[O-])c2)c1 -16.6%, Cc1ccc2c(CNCc3ccc(C)o3)c(C(=O)O)n(Cc3ccccc3C)c2c1 -19.8%, Cc1cc(S(=O)(=O)C(CNC(=O)c2ccc(F)c(F)c2)c2cccs2)ccc1F (stereo not drawn) -17.5%, Cc1ccc(S(=O)(=O)n2nc(-c3ccc(Cl)cc3)nc2NCc2ccc(F)cc2)cc1 -5.71%, Cc1cc(C)c2c(CC(=O)Nc3ccc(S(=O)(=O)Nc4nc(C)cc(C)n4)cc3)coc2c1 -26.5%, Cc1ccc(-c2ccc(=O)n(CC(=O)NCCc3ccccc3)n2)cc1 -0.967%, O=S(=O)(NCCc1csc2nc(-c3ccccc3)nn12)c1cc(F)ccc1F -12.5%, Cc1ccc(-n2ncc3c(Nc4cccc(C(=O)O)c4)ncnc32)cc1 -11.9%, CCCCn1cnc2cc(NCc3ccccc3Cl)ccc21 -24%, Cc1ccc(NC(=O)C(=O)NCC(c2cccnc2)N2CCN(Cc3ccccc3)CC2)cc1F (stereo not drawn) -32.3%, CCCSCCCNC(=O)C1CCN(c2nc3ccccc3nc2C(F)(F)F)CC1 -25.7%, O=C(Cc1cccs1)NC1CC(=O)N(c2ccc(F)cc2)C1 (stereo not drawn) -1.81%, COc1ccc(-c2nc3ccccc3s2)cc1NC(=O)c1ccccc1F -0.514%, CSc1cccc(NC(=O)Nc2ccccc2OCc2cc(=O)n3cc(C)ccc3n2)c1 36.4%, CCc1ccc(S(=O)(=O)Nc2ccc3c(c2)n(C)c(=O)c(=O)n3C)cc1 -27.7%, Cc1cc(N)c2cc(NC(=O)Nc3ccc4nc(C)cc(N)c4c3)ccc2n1 -6.09%, COc1ccc(C(=O)Nc2ccc3nc(SCC(=O)N4CCc5ccccc54)sc3c2)cc1 -17%, COc1ccc(NC(=O)CCNS(=O)(=O)c2ccc3c(c2)CCCC(=O)N3)cc1Cl -20.1%, O=C(NCc1ccc(Cl)cc1)NCc1noc2ccccc12 18.5%, COC(=O)c1ccccc1NC(=O)C1=CC(c2cccs2)=NS(=O)(=O)N1C -20.5%, COc1ccc(-n2nc3cc(C)c(NC(=O)c4ccc(-c5ccc(Cl)cc5)o4)cc3n2)cc1 4.1%, Cc1cc(OCC(=O)Nc2cc(-c3nc4ncccc4o3)ccc2C)ccc1Cl 12.5%, COc1ccc(OCc2ccc(-c3nc(C#N)c(NC(C)c4ccccc4)o3)o2)cc1 (stereo not drawn) -22.4%, Cc1cccc(C)c1Nc1c(-c2ccccn2)nc2c(C)cccn12 -36.9%, CCOc1ccc2nc(N3CCCC(C(=O)NCCc4ccc(OCC)c(OCC)c4)C3)sc2c1 (stereo not drawn) 16.3%, Cc1nn(CC(=O)Nc2ccc(OC(F)(F)F)cc2)c(=O)c2c(C)n(-c3ccc(Cl)cc3)nc12 -0.926%, CCSc1ncc(Cl)c(C(=O)Nc2nnc(CC)s2)n1 -4.64%, Cc1cccc(NC(=O)CSc2ncc(-c3ccccc3)[nH]2)c1C 20.1%, O=C(c1ccccc1F)N1c2ncnn2C2(CCCCC2)[C@@H]2CCCC[C@@H]21 19.1%, Cc1cccc(Nc2nc(N)nc(N)c2S(=O)(=O)c2ccccc2)c1 -14.7%, CCC(C(=O)NCCc1ccccc1)n1nc(C)c2sc3ccccc3c2c1=O (stereo not drawn) -7.86%, COc1ccc(C2=C(C)C(N3CCC(C(=O)Nc4ccccc4F)CC3)=NS2(=O)=O)cc1 -26.6%, Cc1c(C)n(Cc2ccc(F)cc2)c2ccc(C(=O)N3CCN(c4ccc(F)cc4)CC3)cc12 -21.7%, CCOc1ccc2oc(=O)cc(CN3CCN(C(=O)c4ccc(OC)c(OC)c4)CC3)c2c1 -6.26%, COc1ccc(CNC(=O)c2cc3c(=O)n(Cc4cccnc4)ccc3nc2C)cc1 -6.16%, COc1ccccc1CNC(=O)c1cc2c(=O)oc3ccc(C)cc3c2s1 -1.74%, CCCNS(=O)(=O)c1cc(-c2nn3c(C)nnc3c3ccccc23)ccc1C -3.7%, Cc1ccc(-n2c(=O)c3c4c(sc3n(Cc3cc(=O)n5cc(Cl)ccc5n3)c2=O)CCC4)cc1C -6.32%, CCc1ccc(-c2nn(CC(=O)NC3CCCCC3)c3c2cnc2ccc(F)cc23)cc1 -5.15%, CCOc1ccccc1NC(=O)C1CCN(S(=O)(=O)c2ccc3[nH]c(=O)oc3c2)CC1 -12.5%, CCc1cccc(OCC(=O)Nc2ccc(S(=O)(=O)Nc3ncccn3)cc2)c1 -23.3%, CC(C)(C)c1ccc(OCc2nc3ccccc3n2CCOc2ccccc2)cc1 -13.6%, Cc1cccc(C)c1OCc1nc2c3cnn(-c4ccccc4F)c3ncn2n1 -6.65%, CC(=O)c1ccc(S(=O)(=O)N2CCn3cccc3C2c2ccccc2F)cc1 (stereo not drawn) -12.1%, Cc1cc(C)cc(NC(=O)Cc2csc(C)n2)c1 -11%, CCC(C)NC(=O)c1c(C)oc2ncn(CC(C)C)c(=O)c12 (stereo not drawn) 3.66%
